Test results taken from PubChem BioAssay AID504332 (National Center for Advancing Translational Sciences (NCATS), 2011).
In all, about 350,000 compounds went through this assay and about 31,000 (8.9%) were called active. The shares of active, inactive and inconclusive entries below differ from those in the screen. Calls come from the whole dose curve; as a rule, active = well fitted inhibition curve with a large enough effect; inconclusive = small, poorly fitted or top-dose-only effect; inactive = no such curve, though single readings can be large or run the other way. A potency beside an inconclusive call is a rough fit, not a confirmed value.

Biological target: Histone-lysine N-methyltransferase EHMT2 (Homo sapiens) (UniProt Q96KQ7)
Test: qHTS Assay for Inhibitors of Histone Lysine Methyltransferase G9a; note: nearly all actives have a fitted effect of over 75% in size
Conditions: G9a H3K9 monomethylation, AlphaScreen, 2 h; activity, negative = inhibition: at 59 µM (top of the series) unless noted
Procedure, shortened: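 Step 1: enzyme (final 20 nM) with compound, 15 min RT. Step 2: substrate peptide 500 nM and SAM 20 uM, 2 h RT. Step 3: anti-H3K9me1 antibody and AlphaScreen beads, 10 min, then plate read.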
% is set by controls: 0 for no effect and ±100 for the full control effect; potency is the fitted concentration of half-maximal effect; tags give direction and shape of the fitted curve.

Chain of UniProt Q96KQ7 (Q96KQ7 whole entry, looked up): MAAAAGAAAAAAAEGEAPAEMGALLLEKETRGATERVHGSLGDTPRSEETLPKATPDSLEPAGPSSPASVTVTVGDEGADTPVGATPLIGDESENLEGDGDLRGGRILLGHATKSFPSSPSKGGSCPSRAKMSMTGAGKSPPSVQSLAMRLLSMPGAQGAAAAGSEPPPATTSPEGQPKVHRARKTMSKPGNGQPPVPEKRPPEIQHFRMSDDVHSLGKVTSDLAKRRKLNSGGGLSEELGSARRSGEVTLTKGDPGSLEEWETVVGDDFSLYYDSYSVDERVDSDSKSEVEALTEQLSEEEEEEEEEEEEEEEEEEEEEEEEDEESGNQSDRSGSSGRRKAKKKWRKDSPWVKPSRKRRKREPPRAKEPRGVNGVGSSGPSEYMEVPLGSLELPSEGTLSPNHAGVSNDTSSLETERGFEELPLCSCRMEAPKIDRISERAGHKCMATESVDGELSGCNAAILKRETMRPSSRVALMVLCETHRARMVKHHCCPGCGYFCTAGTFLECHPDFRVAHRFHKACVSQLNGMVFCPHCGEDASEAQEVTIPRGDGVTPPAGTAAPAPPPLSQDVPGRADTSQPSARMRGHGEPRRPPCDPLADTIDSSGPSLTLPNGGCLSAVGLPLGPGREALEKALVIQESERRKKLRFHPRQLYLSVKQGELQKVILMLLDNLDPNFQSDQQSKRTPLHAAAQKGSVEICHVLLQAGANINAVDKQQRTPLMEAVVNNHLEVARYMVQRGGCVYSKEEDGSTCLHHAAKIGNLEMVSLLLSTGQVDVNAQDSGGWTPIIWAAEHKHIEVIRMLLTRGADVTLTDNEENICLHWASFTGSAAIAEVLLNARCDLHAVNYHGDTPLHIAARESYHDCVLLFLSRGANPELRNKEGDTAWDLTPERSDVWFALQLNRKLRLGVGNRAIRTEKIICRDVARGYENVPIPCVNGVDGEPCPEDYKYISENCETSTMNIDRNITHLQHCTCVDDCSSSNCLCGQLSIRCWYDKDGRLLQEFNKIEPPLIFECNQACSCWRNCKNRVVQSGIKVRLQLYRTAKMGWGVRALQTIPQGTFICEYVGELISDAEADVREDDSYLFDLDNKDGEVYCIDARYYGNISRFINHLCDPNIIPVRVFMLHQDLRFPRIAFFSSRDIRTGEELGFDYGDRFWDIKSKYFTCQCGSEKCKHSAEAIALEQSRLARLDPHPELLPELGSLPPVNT

SMILES	Potency	activity, negative = inhibition
CCOc1cc(N2CCOCC2)c(OCC)cc1NC(=O)Cc1cccc(OC)c1	active: 50.1 µM	
O=C(CCS(=O)(=O)c1ccc(F)cc1)Nc1nnc(-c2ccco2)o1	active: 28.2 µM	
O=C(Nc1cccc(NC(=O)c2ccc(-c3cccc(Br)c3)o2)c1)c1ccco1		inconclusive: -98.5% [inhibitor] [at 0.0925 µM]
O=C(CC(c1ccccc1)c1ccccc1)NCC(O)c1ccc([N+](=O)[O-])cc1 (configuration not stated)	inconclusive: 79.4 µM [inhibitor, single point]	
CCOc1ccccc1C(=O)Nc1c(C(=O)Nc2ccc(F)cc2)oc2ccccc12		inactive: 7.28%
O=c1c(-c2ccccc2)[n+]([O-])c2ccccc2n1O	inconclusive: 3.16 µM [inhibitor, partial curve, poor fit]	
CCOC(=O)c1ccc(NC(=O)c2c(NCc3cccs3)sc3c2CCCC3)cc1	inconclusive: 0.355 µM [inhibitor, full curve]	
CCc1ccc(S(=O)(=O)c2cn(C)c3cc(N4CCC(C)CC4)c(F)cc3c2=O)cc1		inactive: 1.6%
COc1cccc(CN2CCC(C(=O)Nc3ccc(-c4cccc(C)c4)cc3)CC2)c1O	active: 20 µM	
COc1cccc(O)c1CN1CCC(n2nccc2NC(=O)c2ccc3c(c2)OCO3)CC1		inactive: 35.3% [at 102 µM]
CCCn1c(SCC(=O)NC2CCCC(C)C2C)n[nH]c1=O (configuration not stated)	inconclusive: 79.4 µM [inhibitor, single point]	
CC(C)(C)SCCNS(=O)(=O)c1ccc(F)cc1	inconclusive: 7.08 µM [inhibitor, single point]	
Nc1ccccc1SCc1csc(-c2ccc(Cl)cc2)n1	active: 35.5 µM	
COc1ccc(C2CC(c3ccccc3)=NN2C(=O)CN2CCN(Cc3ccccc3)CC2)cc1 (configuration not stated)	inconclusive: 31.6 µM [inhibitor, partial curve, poor fit]	
CCOc1ccc(-c2nnc(N3CCCCC3)c3ccccc23)cc1		inconclusive: -61.7% [inhibitor] [at 0.501 µM]
COc1cccc(C2CNC3(CCCC(C)C3)c3[nH]c4ccccc4c32)c1OC (configuration not stated)	inconclusive: 70.8 µM [inhibitor, single point]	
CCC1=NC(c2ccc(OC)cc2)N(O)C1(C)C (configuration not stated)	inconclusive: 89.1 µM [inhibitor, single point]	
Cc1nc(Cc2nnc(SCC(=O)N3CCN(c4ccccc4)CC3)o2)cs1	active: 44.7 µM	
COc1ccccc1C(CNC(=S)NCc1ccccc1)N1CCCC1 (configuration not stated)	inconclusive: 79.4 µM [inhibitor, partial curve, poor fit]	
Cc1cc(C(F)(F)F)c2c(n1)sc1c(O)cc(=O)[nH]c12	inconclusive: 89.1 µM [inhibitor, partial curve, poor fit]	
O=[N+]([O-])c1cnn2cc(Br)cnc12		inactive: 25.3% [at 102 µM]
C=C(C)C(=O)NNc1ccccc1	active: 11.2 µM	
CC(OC(=O)CC1CCCC1)C(=O)Nc1ccc(S(N)(=O)=O)cc1 (configuration not stated)	inconclusive: 89.1 µM [inhibitor, single point]	
CCn1c(=O)c([N+](=O)[O-])c(NCCN(C)C)c2ccccc21	active: 56.2 µM	

SMILES	Potency	activity, negative = inhibition
COc1cccc(CNC(=O)CCNS(=O)(=O)c2ccc3[nH]c(=O)oc3c2)c1		inactive: 10.2% [at 102 µM]
COc1ccc(C2c3cc(OC)c(OC)cc3CCN2C2CC(=O)N(c3ccccc3)C2=O)cc1OC (configuration not stated)	inconclusive: 89.1 µM [inhibitor, single point]	
COc1ccc(C(C)NC(=S)NC2CCCCC2)cc1OC (configuration not stated)	inconclusive: 79.4 µM [inhibitor, single point]	
O=C(NC1CCCc2ccccc21)c1ccccc1 (configuration not stated)		inactive: 4.59%
COc1ccc(NC(=O)CCS(=O)(=O)c2ccc3nc(C)sc3c2)cc1Cl		inactive: -5.32%
O=C(N/N=C/c1cc(Br)c(O)c(Br)c1O)c1ccc2c(c1)OCCO2	inconclusive: 79.4 µM [inhibitor, partial curve, poor fit]	
COc1ccc(OC)c(-n2nnnc2SCC(=O)Nc2ccccc2OC)c1		inactive: 6.74% [at 0.501 µM]
Cc1ccc(OCC(=O)NNC(=O)CSC(=S)N2CCCC2)cc1	active: 44.7 µM	
Cc1ccc(OCc2n[nH]c(=S)n2Cc2ccccc2)cc1	inconclusive: 2.24 µM [inhibitor, full curve]	
COc1cc(-c2noc(CCC(=O)Nc3cc(C)ccc3C)n2)cc(OC)c1OC		inactive: -32.4%
COc1ccc2cc(C(N)=O)/c(=N/NC(=O)c3ccco3)oc2c1	inconclusive: 0.562 µM [inhibitor, full curve, poor fit]	
COc1ccc(C(=O)c2oc3ccccc3c2NC(=O)COc2cccc(C)c2C)cc1		inactive: 22.5%
CC(NC(=O)CN(c1ccc(Cl)cc1Cl)S(=O)(=O)c1ccccc1)c1ccccc1 (configuration not stated)		inactive: 2.62%
CN(C(=O)CSC1=Nc2ccccc2C2=NC(c3ccccc3)C(=O)N12)C1CCCCC1 (configuration not stated)	inconclusive: 28.2 µM [inhibitor, single point]	
CCOC(=O)c1[nH]c2ccc(Br)cc2c1NC(=O)CCN1CCCC(C)(C)C1	active: 8.91 µM	
COc1cc(/C=N/n2nnnc2Nc2ccccc2)cc(OC)c1OC		inactive: -12.6%
CC(CN(C)Cc1ccccc1)OC(=O)c1ccc2c(c1)OCCO2 (configuration not stated)		inconclusive: -54.5% [inhibitor]
CN(C)c1cc[n+](/C(C(=S)Nc2ccc(SC(F)F)cc2)=C(/[O-])c2ccccc2)cc1	inconclusive: 50.1 µM [inhibitor, partial curve, poor fit]	
O=C(Cc1ccc(S(=O)(=O)N2CCCC2)s1)N1CCOCC1	inconclusive: 79.4 µM [inhibitor, single point]	
Cc1ccc(OC(=O)CSc2nnc(-c3cccs3)o2)cc1	inconclusive: 39.8 µM [inhibitor, partial curve, poor fit]	
CCN(CC)c1ccc(/C=N/NC(=O)c2ccco2)cc1		inactive: -3.82%
O=C(Nc1cccc(Cl)c1N1CCOCC1)c1ccc([N+](=O)[O-])o1	inconclusive: 39.8 µM [inhibitor, single point]	
Cc1cc(C)c(NC(=O)Cn2nnc(-c3ccccc3)n2)c(C)c1		inactive: 9.93%
Cc1nn(Cc2c(Cl)cccc2Cl)c(Cl)c1/C=C/C(=O)OCC(=O)NCC(F)(F)F	inconclusive: 14.1 µM [inhibitor, partial curve, poor fit]	

SMILES	Potency	activity, negative = inhibition
CC(=O)Nc1ccccc1-c1nc2ccccc2n(Cc2cccc(Br)c2)c1=O	inconclusive: 39.8 µM [inhibitor, single point]	
C/C(CC(=O)NCc1ccco1)=N\NC(=O)COc1ccc(Cl)cc1Cl	inconclusive: 79.4 µM [inhibitor, partial curve, poor fit]	
COc1cccc(-n2c(SC)nnc2-c2c[nH]c3ccccc23)c1	inconclusive: 89.1 µM [inhibitor, single point]	
Cc1cc(C(C)c2ccccc2)c(O)c(CN2CCOCC2)c1C (configuration not stated)		inconclusive: -52.8% [inhibitor] [at 12.7 µM]
Cc1ccc(C)c(NC(=O)c2ccc3c(=O)n4c(nc3c2)CCC4)c1		inactive: 21.9% [at 12.7 µM]
C=CCN1C(=O)c2ccccc2Sc2ccc(C(=O)NCC(OC)OC)cc21		inactive: 34.2% [at 102 µM]
CCNc1oc(-c2ccccc2F)nc1S(=O)(=O)c1ccccc1	active: 44.7 µM	
COc1ccc(NC(=O)N2CCCC3(CCN(C(=O)c4csnn4)CC3)C2)cc1		inactive: 5.34% [at 12.7 µM]
CC(=O)/C=C/n1c(=S)oc2ccccc21	inconclusive: 28.2 µM [inhibitor, single point]	
Cc1ccc(C)c(C(=O)NC(C)c2ccc(-n3ccnc3)cc2)c1 (configuration not stated)		inactive: 45% [at 102 µM]
O=C(CSc1ccc(C(F)(F)F)cc1[N+](=O)[O-])NCCOc1ccccc1	inconclusive: 28.2 µM [inhibitor, partial curve, poor fit]	
COc1ccccc1CN1C[C@@H]2C[C@@H](C3=Cc4cc(Cl)ccc4OC3)N3CCC[C@@]23C1=O	inconclusive: 31.6 µM [inhibitor, partial curve]	
CCOC(=O)c1c(CSC(=N)N)n(C)c2cc(Br)c(OC(C)=O)cc12	inconclusive: 25.1 µM [inhibitor, partial curve, poor fit]	
CN(Cc1ccccc1)Cc1ccccc1F	active: 8.91 µM	
Cc1cccn2c(=O)cc(COc3cccc(NC(=O)COc4ccc(F)cc4)c3)nc12		inactive: 5.02%
O=c1[nH]c(-[n+]2ccccc2)c(/C=N/NC([S-])=Nc2ccccc2)s1	active: 22.4 µM	
O=C(CN1CCCN(Cc2ccccc2Cl)S1(=O)=O)NCc1ccccc1	inconclusive: 6.31 µM [inhibitor, single point]	
CN(CC1CCCN(CCc2ccc(Cl)cc2)C1)C(=O)c1ccc2nc[nH]c2c1 (configuration not stated)		inactive: 10.9% [at 102 µM]
Cc1cccc(NC(=O)CSc2c(C)cnc3c2c(=O)n(C)c(=O)n3C)c1C		inactive: 10.1%
COc1ccc(NC(=O)CCC(=O)N2CCN(S(=O)(=O)c3ccc(C)cc3)CC2)c(OC)c1	inconclusive: 79.4 µM [inhibitor, single point]	
Cn1c(=O)n(C)c2cc([N+](=O)[O-])c(N3CCN(C(=O)c4cccc(F)c4)CC3)cc21	inconclusive: 44.7 µM [inhibitor, partial curve]	
COc1cc(CNCc2cccc3ccccc23)cc(OC)c1	active: 50.1 µM	
O=C(O)CCCNS(=O)(=O)c1cccs1	inconclusive: 89.1 µM [inhibitor, single point]	
O=C(CSc1nc2c([nH]c3ccccc32)c(=O)n1-c1ccc(Cl)cc1)N1CCOCC1		inactive: 8.34%
